Sequences with one replicate were seen in a single cluster, so their values are uncertain.
Each sequence was assayed on ATP (assay: switch fluorescence ratio, 500 uM ATP over buffer (Cy3 cluster intensity, sum of 5 cycles each) (fold (ratio)); higher = stronger signal-on switching upon ATP binding; sequences stand for … in TCGTCGGCAGCGTCAGATGTGTATAAGAGACAGTTTTTTTTTTTTTTTTTTTTTTTTT…TC). Settings: aptamer strand: ATP DNA aptamer (quencher-CACCTGGGGGAGTATTGCGGAGGAAGG + anchor), 100 nM annealed; ATP concentration: 500 uM; one replicate.
How it was run: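 Values give the fluorescence ratio for each switch-domain sequence, averaged from per-cluster ratios of summed target-cycle to summed buffer-cycle Cy3 intensity. The Cy3-labelled switching-strand clusters sat on a modified Illumina MiSeq flow-cell, were annealed to 100 nM quencher-labelled ATP aptamer, and were imaged in selection buffer, then after 15 min with 500 uM ATP at 22 °C. Five cycles ran with NaOH stripping and re-annealing between them, and clusters outside 100-1000 RFU were excluded.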
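Also: ATP exposure 15 min at 22 °C before imaging.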

Sequence	switch fluorescence ratio
AAAATCGGAA	1.02
TCGGAATAGT	1.55
CACTTTTATT	0.995
GATGACGGTA	1.06
TCACTATTTG	1
GAATCAGAAT	1.01
CTAGCGGGGA	1.05
GAGGACATAT	1.02
TCAGTGGTAA	1.03
GACCAAGTT	1.02
GATACTCCAC	2.05
AACTTGGACG	0.982
CTGAGAGCTC	0.977
ATCCGCCCT	1.28
GCAATAATCC	2.6
AGAAGACCTT	1.09
AGATTGCGG	0.944
GATTGATGCC	1.04
CGGGGATAGC	1.01
GCTGAGTGAC	0.957
GAGGCTGGAG	0.962
CGGTTATGGG	0.988
CGGTACGACA	0.998
AGTCCATGTC	1.04
CAGGGCCAG	0.973
GAGATTCGCA	1.02

Sequence	switch fluorescence ratio
TTCTGGGGAA	1.11
CAATGCGAGC	1.11
AGAGCAAGCC	1.55
TGGGCAGTA	1.06
AACGATACAG	1.19
AGATTCCT	1.02
TCGGATAAGC	1.03
CGGATAAGTA	0.962
GCGAACTTTC	1
GTCAATCACG	1.07
TAAGCTAACA	1.03
GCAATGAATT	1.06
CTGTCGCACA	1.79
CTCACAGGCC	1.05
AACGGCCTTG	0.989
TAGTTATATT	1.01
CTATTGCTCA	1.03
TCTGTCCACG	0.982
AACAGTAAGA	1.05
GAGATAGGTC	1.03
TCGGAAGTTA	1.02
GGTGGCGA	1.03
TGATGACA	1
GTGGGCCGCC	0.987
CATTTTTATA	1.01
TTGGGCCAAA	1.01

Sequence	switch fluorescence ratio
TATTTACAGA	1.06
ACCGGAAGG	1.02
GAGCGCCTTA	1.03
GTTACCTGGG	1.41
TAAGGAGATG	0.994
TTGGGTCGCT	0.997
CACGAGCTTG	0.98
AGTGTCGTAA	1.03
GGATAAAGTC	1
AGGCCATTGC	1
GGACACACTG	1.06
GTGCGGAATT	1.2
GAGTTATTAT	1.04
AAGGGCCTTT	1.02
CTTAACGGAG	1.03
AGGTTAGTTC	1.29
AGAGCGGGAG	0.946
TCTATTTAAC	1.04
TACTGATGAA	1.06
AGATATTTTA	1
ATAGGAGACG	0.924
GAGTGGCCGT	1.06
GGTGCAAGGT	1.06
ATTGTAAGCC	1.03
AAAGGTGCAG	1.02
ATGGTTACTA	1.04

Sequence	switch fluorescence ratio
TTGGCTGGGA	1
GCAGTCGTTT	1.06
TGCTTTCGT	1.03
CTAGCTGCCG	0.991
ACGAAAACAT	1.05
TTGGAGCTGG	1.04
CCCCTGGTGG	2.99
CCTTCATTGA	1
GTATTCACAA	1.02
ACAATCGGGA	1.01
TACTTATCTT	1.08
ATCAGCCAAA	1.03
CATCCTCTCA	1.07
TCCGGTCCAG	1.09
GAGGGAGTCT	1.05
TCGAAGTTTC	1.11
ATTGGGGTA	0.985
GAATGTCGAC	1.04
ACGTTGCACG	1.01
ATGCCGTCGG	0.972
CTACGTTCGG	0.991
GGGTCCGGAG	0.936
ATTTATACTT	0.991
CTCGAAGCCG	1.05
CTTAGATTAG	1.02
TTGAGCGAAG	1.01

Sequence	switch fluorescence ratio
GTGAAGCGTA	1
CTAGATTCCA	0.971
TAGATTCTAA	1.04
TCAGTTTCAA	1.03
AACATTCCGA	3.35
GGCGGTGCCA	1.01
AGCGCGAAA	1.03
GGAGAAGATA	0.99
TTGGGTCCCT	1
GTTGCGCAAA	1.03
TATCTTAGCT	1.03
TACCTACGTT	1.29
GTAGTTTTAG	0.99
TTCGGGTTAG	0.995
TTAGAATCAG	0.969
ATGTGGGGCG	0.998
ATTATTGAT	0.992
CACGCGCCCC	1.32
ACCACTGT	0.993
CTTGGACTAG	0.994
TAAGTGATTT	0.991
TAACCATAAT	0.979
TTACTTTCGC	1.02
TGAGATGTAA	0.993
CTAGTCATT	0.979
GAGTCGAATG	1.03

Sequence	switch fluorescence ratio
CTAGGGGAA	0.973
AAATTCAACG	1.02
CACGACTGCT	1.08
TGGTGCTCGA	0.992
TATTTACGGA	1.05
GAGGACCTCA	0.994
CTGTGAGCT	1.06
CCGAATCAGC	2.18
AATCCAAATT	0.997
GCGTTGTGGT	1.01
ACATCTGGGG	1.02
ATGGGAACGC	1.01
TAGGCGCCTG	0.988
TCGATCAGCG	1.01
CTAGGTACA	1.1
GGCTCTCACG	0.99
GAGGCCGCAG	2.94
TGCAGTATGC	0.939
CCAGCGAGGC	2.38
CGCTGCGGAA	1
CCCAGTACTG	1.11
GTTATCGCAG	1.02
GTTACACCTG	1.02
CGGGTCTCTG	0.97
